This is one part of the list.
How the values were obtained:
Assay in all cases: glycan array binding signal (z-score within array); higher = stronger binding
Settings in all cases: glycan notation: IUPAC condensed, linker removed
[1] = target: Neu5Ac(a2-6)Gal(b1-4)GlcNAc(b1-3)Gal(b1-4)GlcNAc(b1-3)GalNAc
Summary of the method: (§1)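 Glycan array data came from 3228 arrays in the Consortium for Functional Glycomics database, and only arrays with an available protein sequence were kept. Glycan names were put into IUPAC-condensed notation, and columns mapping to the same glycan were averaged. The binding signal is a within-array Z-score, averaged across arrays of one protein sequence run at different concentrations or buffers and across linkers. A negative Z-score can be read as non-binding.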

[2] = target: Neu5Ac(a2-6)Gal(b1-4)GlcNAc(b1-3)Gal(b1-4)GlcNAc(b1-3)[Neu5Ac(a2-6)Gal(b1-4)GlcNAc(b1-3)Gal(b1-4)GlcNAc(b1-6)]GalNAc
Summary of the method: as §1

[3] = target: Neu5Ac(a2-6)Gal(b1-4)GlcNAc(b1-3)Gal(b1-4)GlcNAc(b1-6)[Gal(b1-3)]GalNAc
Summary of the method: as §1

[4] = target: Neu5Ac(a2-6)Gal(b1-4)GlcNAc(b1-3)Gal(b1-4)[Fuc(a1-3)]GlcNAc(b1-3)Gal(b1-4)[Fuc(a1-3)]GlcNAc
Summary of the method: as §1

[5] = target: Neu5Ac(a2-6)Gal(b1-4)GlcNAc(b1-3)GalNAc
Summary of the method: as §1

[6] = target: Neu5Ac(a2-6)Gal(b1-4)GlcNAc(b1-3)[Neu5Ac(a2-6)Gal(b1-4)GlcNAc(b1-6)]GalNAc
Summary of the method: as §1

[7] = target: Neu5Ac(a2-6)Gal(b1-4)GlcNAc(b1-6)GalNAc
Summary of the method: as §1

[8] = target: Neu5Ac(a2-6)Gal(b1-4)GlcNAc(b1-6)[Gal(b1-3)GlcNAc(b1-3)]Gal(b1-4)Glc
Summary of the method: as §1

[9] = target: Neu5Ac(a2-6)Gal(b1-4)GlcNAc(b1-6)[Gal(b1-3)]GalNAc
Summary of the method: as §1

[10] = target: Neu5Ac(a2-6)Gal(b1-4)GlcNAc6S
Summary of the method: as §1

Neu5Ac(a2-6)GalNAc = target: Neu5Ac(a2-6)GalNAc
Summary of the method: as §1

[11] = target: Neu5Ac(a2-6)GalNAc(b1-4)GlcNAc
Summary of the method: as §1

[12] = target: Neu5Ac(a2-6)GalNAc(b1-4)GlcNAc6S
Summary of the method: as §1

[13] = target: Neu5Ac(a2-6)GlcNAc(b1-4)GlcNAc
Summary of the method: as §1

[14] = target: Neu5Ac(a2-6)GlcNAc(b1-4)GlcNAc(b1-4)GlcNAc
Summary of the method: as §1

Neu5Ac(a2-8)Neu5Ac = target: Neu5Ac(a2-8)Neu5Ac
Summary of the method: as §1

[15] = target: Neu5Ac(a2-8)Neu5Ac(a2-3)Gal(b1-3)GalNAc(b1-4)[Neu5Ac(a2-3)]Gal(b1-4)Glc
Summary of the method: as §1

[16] = target: Neu5Ac(a2-8)Neu5Ac(a2-3)Gal(b1-3)GalNAc(b1-4)[Neu5Ac(a2-8)Neu5Ac(a2-3)]Gal(b1-4)Glc
Summary of the method: as §1

[17] = target: Neu5Ac(a2-8)Neu5Ac(a2-3)Gal(b1-4)Glc
Summary of the method: as §1

[18] = target: Neu5Ac(a2-8)Neu5Ac(a2-3)Gal(b1-4)GlcNAc
Summary of the method: as §1

[19] = target: Neu5Ac(a2-8)Neu5Ac(a2-3)[Gal(b1-3)GalNAc(b1-4)]Gal(b1-4)Glc
Summary of the method: as §1

[20] = target: Neu5Ac(a2-8)Neu5Ac(a2-3)[GalNAc(b1-4)]Gal(b1-4)Glc
Summary of the method: as §1

[21] = target: Neu5Ac(a2-8)Neu5Ac(a2-8)Neu5Ac
Summary of the method: as §1

[22] = target: Neu5Ac(a2-8)Neu5Ac(a2-8)Neu5Ac(a2-3)Gal(b1-4)Glc
Summary of the method: as §1

[23] = target: Neu5Ac(a2-8)Neu5Ac(a2-8)Neu5Ac(a2-3)[Gal(b1-3)GalNAc(b1-4)]Gal(b1-4)Glc
Summary of the method: as §1

[24] = target: Neu5Ac(a2-8)Neu5Ac(a2-8)Neu5Ac(a2-3)[GalNAc(b1-4)]Gal(b1-4)Glc
Summary of the method: as §1

[25] = target: Neu5Ac(a2-8)Neu5Ac(a2-8)Neu5Ac(a2-8)Neu5Ac(a2-3)[GalNAc(b1-4)]Gal(b1-4)Glc
Summary of the method: as §1

[26] = target: Neu5Ac(a2-8)Neu5Gc(a2-3)Gal(b1-4)GlcNAc
Summary of the method: as §1

[27] = target: Neu5Ac(b2-6)Gal(b1-4)GlcNAc
Summary of the method: as §1

Neu5Ac(b2-6)GalNAc = target: Neu5Ac(b2-6)GalNAc
Summary of the method: as §1

[28] = target: Neu5Ac9Ac(a2-3)Gal(b1-3)GlcNAc
Summary of the method: as §1

[29] = target: Neu5Ac9Ac(a2-3)Gal(b1-4)GlcNAc
Summary of the method: as §1

[30] = target: Neu5Ac9Ac(a2-6)Gal(b1-4)GlcNAc
Summary of the method: as §1

[31] = target: Neu5Gc(a2-3)Gal(b1-3)GlcNAc
Summary of the method: as §1

[32] = target: Neu5Gc(a2-3)Gal(b1-3)[Fuc(a1-4)]GlcNAc
Summary of the method: as §1

Neu5Gc(a2-3)Gal(b1-4)Glc = target: Neu5Gc(a2-3)Gal(b1-4)Glc
Summary of the method: as §1

[33] = target: Neu5Gc(a2-3)Gal(b1-4)GlcNAc
Summary of the method: as §1

[34] = target: Neu5Gc(a2-3)Gal(b1-4)GlcNAc(b1-3)Gal(b1-4)GlcNAc(b1-2)Man(a1-3)[Neu5Gc(a2-3)Gal(b1-4)GlcNAc(b1-3)Gal(b1-4)GlcNAc(b1-2)Man(a1-6)]Man(b1-4)GlcNAc(b1-4)GlcNAc
Summary of the method: as §1

[35] = target: Neu5Gc(a2-3)Gal(b1-4)[Fuc(a1-3)]GlcNAc
Summary of the method: as §1

[36] = target: Neu5Gc(a2-6)Gal(b1-4)GlcNAc
Summary of the method: as §1

Neu5Gc(a2-6)GalNAc = target: Neu5Gc(a2-6)GalNAc
Summary of the method: as §1

[37] = target: Neu5Gc(a2-8)Neu5Ac(a2-3)Gal(b1-4)GlcNAc
Summary of the method: as §1

[38] = target: Neu5Gc(a2-8)Neu5Gc(a2-3)Gal(b1-4)GlcNAc
Summary of the method: as §1

[39] = target: Neu5Gc(a2-8)Neu5Gc(a2-3)Gal(b1-4)GlcNAc(b1-3)Gal(b1-4)GlcNAc
Summary of the method: as §1

[40] = target: Neu5Gc(a2-8)Neu5Gc(a2-6)Gal(b1-4)GlcNAc
Summary of the method: as §1

[41] = target: Neu5Gc(b2-6)Gal(b1-4)GlcNAc
Summary of the method: as §1

B1: B1567 (Bifidobacterium sp) (protein)
chain: MKFTTAKKAVALTGAVAMLVSVAACGSDSGKSSQPAQDSDVKEITVWAWEPSLTQVAKDFEKETGIKVDLKNVGTNTKEYTQLDNAIEAGSGAPDVAQVEYYAVPQYAIKGNLLDITDKTSGYKDFYTPGPWASVQFAGKVYGLPMDSGPMAFFYNKEVFDKAGVDAEQIKTWDQYYDAAKKIHALGDNYYITSDTGDAGFFDSMTWLAGAKPFQTSSDGSEVTVNLTEDKGVKTFTDFWQKLLDEGLLDTKTAGWSEDWFKGMVDGTIASLFTGAWMPANLANSAADGAGKWRVTQMPTADGSTTNSENGGSSLAVLASTKKADAAYQFIEYANHGAGVATRVAGGAFPADKASLEKDSFKNATTVKNADGQDVDYFGGQKYNEVLAQAAENVSSGYQFLPFEVKARTIFGDYFGKSYTGDQKLSDGVAAWQKALQDYGKDQGFTVK
glycan array binding signal (z-score) [1]: -0.112
glycan array binding signal (z-score) [2]: -0.042
glycan array binding signal (z-score) [3]: -0.12
glycan array binding signal (z-score) [4]: -0.063
glycan array binding signal (z-score) [5]: -0.119
glycan array binding signal (z-score) [6]: 0.054
glycan array binding signal (z-score) [7]: 0.003
glycan array binding signal (z-score) [8]: -0.079
glycan array binding signal (z-score) [9]: -0.122
glycan array binding signal (z-score) [10]: -0.094
glycan array binding signal (z-score) (Neu5Ac(a2-6)GalNAc): -0.111
glycan array binding signal (z-score) [11]: -0.119
glycan array binding signal (z-score) [12]: -0.045
glycan array binding signal (z-score) [13]: -0.072
glycan array binding signal (z-score) [14]: -0.184
glycan array binding signal (z-score) (Neu5Ac(a2-8)Neu5Ac): -0.122
glycan array binding signal (z-score) [15]: -0.17
glycan array binding signal (z-score) [16]: -0.077
glycan array binding signal (z-score) [17]: -0.098
glycan array binding signal (z-score) [18]: -0.129
glycan array binding signal (z-score) [19]: -0.097
glycan array binding signal (z-score) [20]: -0.091
glycan array binding signal (z-score) [21]: -0.16
glycan array binding signal (z-score) [22]: -0.14
glycan array binding signal (z-score) [23]: -0.101
glycan array binding signal (z-score) [24]: -0.116
glycan array binding signal (z-score) [25]: -0.062
glycan array binding signal (z-score) [26]: -0.089
glycan array binding signal (z-score) [27]: -0.054
glycan array binding signal (z-score) (Neu5Ac(b2-6)GalNAc): -0.144
glycan array binding signal (z-score) [28]: -0.1
glycan array binding signal (z-score) [29]: -0.065
glycan array binding signal (z-score) [30]: -0.122
glycan array binding signal (z-score) [31]: -0.127
glycan array binding signal (z-score) [32]: -0.073
glycan array binding signal (z-score) (Neu5Gc(a2-3)Gal(b1-4)Glc): -0.016
glycan array binding signal (z-score) [33]: -0.105
glycan array binding signal (z-score) [34]: -0.066
glycan array binding signal (z-score) [35]: -0.036
glycan array binding signal (z-score) [36]: -0.101
glycan array binding signal (z-score) (Neu5Gc(a2-6)GalNAc): -0.074
glycan array binding signal (z-score) [37]: -0.035
glycan array binding signal (z-score) [38]: -0.086
glycan array binding signal (z-score) [39]: -0.116
glycan array binding signal (z-score) [40]: -0.077
glycan array binding signal (z-score) [41]: -0.086

From the supplement of paper PMC8728848
